# Results reported in the supplement of paper PMC8728848.
# The other results are listed elsewhere or left out.
# B1: HML-Native (Hypnea musciformis), P84871 (protein)
# chain: QKFCTLDIAPVCCQIVIGGGMYTAGNACMCEGFVSGVGRCENPKECPCTREAQIPSCCSSRWGLVSVTGKCACDCLGGTVAFPEPCPSPY
# What was measured:
# Assay in all cases: glycan array binding signal (z-score within array); higher = stronger binding
# Settings in all cases: glycan notation: IUPAC condensed, linker removed
# [1] = biological target: Fuc(a1-2)[GalNAc(b1-3)]Gal
# Procedure, shortened: (§1)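 Negative Z-scores can be read as non-binding. The Z-score is calculated within each array and then averaged across arrays of one protein sequence at different concentrations or buffers and across linkers. Arrays, 3228 in all, were curated from the Consortium for Functional Glycomics database and kept only where the protein sequence was available.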
# Fuc(a1-3)GlcNAc = biological target: Fuc(a1-3)GlcNAc
# Procedure, shortened: as §1
# [2] = biological target: Fuc(a1-3)[Gal(b1-4)]Glc6S
# Procedure, shortened: as §1
# [3] = biological target: Fuc(a1-3)[Gal(b1-4)]GlcNAc
# Procedure, shortened: as §1
# [4] = biological target: Fuc(a1-3)[Gal(b1-4)]GlcNAc(b1-2)Man
# Procedure, shortened: as §1
# [5] = biological target: Fuc(a1-3)[Gal(b1-4)]GlcNAc(b1-2)Man(a1-3)[Fuc(a1-3)[Gal(b1-4)]GlcNAc(b1-2)Man(a1-6)]Man(b1-4)GlcNAc(b1-4)GlcNAc
# Procedure, shortened: as §1
# [6] = biological target: Fuc(a1-3)[Gal(b1-4)]GlcNAc(b1-2)Man(a1-3)[Fuc(a1-3)[Gal(b1-4)]GlcNAc(b1-2)Man(a1-6)]Man(b1-4)GlcNAc(b1-4)[Fuc(a1-6)]GlcNAc
# Procedure, shortened: as §1
# [7] = biological target: Fuc(a1-3)[Gal(b1-4)]GlcNAc(b1-3)Gal(b1-3)[Fuc(a1-4)]GlcNAc
# Procedure, shortened: as §1
# [8] = biological target: Fuc(a1-3)[Gal(b1-4)]GlcNAc(b1-3)Gal(b1-4)[Fuc(a1-3)]GlcNAc
# Procedure, shortened: as §1
# [9] = biological target: Fuc(a1-3)[Gal(b1-4)]GlcNAc(b1-3)Gal(b1-4)[Fuc(a1-3)]GlcNAc(b1-3)Gal(b1-4)[Fuc(a1-3)]GlcNAc
# Procedure, shortened: as §1
# [10] = biological target: Fuc(a1-3)[Gal(b1-4)]GlcNAc(b1-3)GalNAc
# Procedure, shortened: as §1
# [11] = biological target: Fuc(a1-3)[Gal(b1-4)]GlcNAc(b1-6)GalNAc
# Procedure, shortened: as §1
# [12] = biological target: Fuc(a1-3)[Gal(b1-4)]GlcNAc(b1-6)[Gal(b1-3)GlcNAc(b1-3)]Gal(b1-4)Glc
# Procedure, shortened: as §1
# [13] = biological target: Fuc(a1-3)[Gal(b1-4)]GlcNAc6S
# Procedure, shortened: as §1
# [14] = biological target: Fuc(a1-3)[Gal3S(b1-4)]Glc
# Procedure, shortened: as §1
# [15] = biological target: Fuc(a1-3)[Gal3S(b1-4)]GlcNAc
# Procedure, shortened: as §1
# [16] = biological target: Fuc(a1-3)[Gal3S(b1-4)]GlcNAc6S
# Procedure, shortened: as §1
# [17] = biological target: Fuc(a1-3)[GalNAc(b1-4)]GlcNAc
# Procedure, shortened: as §1
# [18] = biological target: Fuc(a1-3)[GalNAc(b1-4)]GlcNAc6S
# Procedure, shortened: as §1
# Fuc(a1-4)GlcNAc = biological target: Fuc(a1-4)GlcNAc
# Procedure, shortened: as §1
# Fuc(b1-3)GlcNAc = biological target: Fuc(b1-3)GlcNAc
# Procedure, shortened: as §1
# Gal(a1-2)Gal = biological target: Gal(a1-2)Gal
# Procedure, shortened: as §1
# Gal(a1-3)Gal = biological target: Gal(a1-3)Gal
# Procedure, shortened: as §1
# Gal(a1-3)Gal(b1-3)GlcNAc = biological target: Gal(a1-3)Gal(b1-3)GlcNAc
# Procedure, shortened: as §1
# [19] = biological target: Gal(a1-3)Gal(b1-3)GlcNAc(b1-2)Man
# Procedure, shortened: as §1
# [20] = biological target: Gal(a1-3)Gal(b1-3)GlcNAc(b1-2)Man(a1-3)[Gal(a1-3)Gal(b1-3)GlcNAc(b1-2)Man(a1-6)]Man(b1-4)GlcNAc(b1-4)GlcNAc
# Procedure, shortened: as §1
# [21] = biological target: Gal(a1-3)Gal(b1-3)GlcNAc(b1-3)GalNAc
# Procedure, shortened: as §1
# [22] = biological target: Gal(a1-3)Gal(b1-3)GlcNAc(b1-6)GalNAc
# Procedure, shortened: as §1
# [23] = biological target: Gal(a1-3)Gal(b1-3)[Fuc(a1-4)]GlcNAc(b1-2)Man(a1-3)[Gal(a1-3)Gal(b1-3)[Fuc(a1-4)]GlcNAc(b1-2)Man(a1-6)]Man(b1-4)GlcNAc(b1-4)GlcNAc
# Procedure, shortened: as §1
# Gal(a1-3)Gal(b1-4)Glc = biological target: Gal(a1-3)Gal(b1-4)Glc
# Procedure, shortened: as §1
# Gal(a1-3)Gal(b1-4)GlcNAc = biological target: Gal(a1-3)Gal(b1-4)GlcNAc
# Procedure, shortened: as §1
# [24] = biological target: Gal(a1-3)Gal(b1-4)GlcNAc(b1-2)Man
# Procedure, shortened: as §1
# [25] = biological target: Gal(a1-3)Gal(b1-4)GlcNAc(b1-2)Man(a1-3)[Gal(a1-3)Gal(b1-4)GlcNAc(b1-2)Man(a1-6)]Man(b1-4)GlcNAc(b1-4)GlcNAc
# Procedure, shortened: as §1
# [26] = biological target: Gal(a1-3)Gal(b1-4)GlcNAc(b1-3)GalNAc
# Procedure, shortened: as §1
# [27] = biological target: Gal(a1-3)Gal(b1-4)GlcNAc(b1-6)GalNAc
# Procedure, shortened: as §1
# [28] = biological target: Gal(a1-3)Gal(b1-4)[Fuc(a1-3)]GlcNAc
# Procedure, shortened: as §1
# [29] = biological target: Gal(a1-3)Gal(b1-4)[Fuc(a1-3)]GlcNAc(b1-2)Man(a1-3)[Gal(a1-3)Gal(b1-4)[Fuc(a1-3)]GlcNAc(b1-2)Man(a1-6)]Man(b1-4)GlcNAc(b1-4)GlcNAc
# Procedure, shortened: as §1
# Gal(a1-3)GalNAc = biological target: Gal(a1-3)GalNAc
# Procedure, shortened: as §1
# [30] = biological target: Gal(a1-3)[Gal(a1-4)]Gal(b1-4)GlcNAc
# Procedure, shortened: as §1
# [31] = biological target: Gal(a1-4)Gal(b1-3)GlcNAc(b1-2)Man(a1-3)[Gal(a1-4)Gal(b1-3)GlcNAc(b1-2)Man(a1-6)]Man(b1-4)GlcNAc(b1-4)GlcNAc
# Procedure, shortened: as §1
# Gal(a1-4)Gal(b1-4)Glc = biological target: Gal(a1-4)Gal(b1-4)Glc
# Procedure, shortened: as §1
# Gal(a1-4)Gal(b1-4)GlcNAc = biological target: Gal(a1-4)Gal(b1-4)GlcNAc
# Procedure, shortened: as §1
# [32] = biological target: Gal(a1-4)Gal(b1-4)GlcNAc(b1-2)Man(a1-3)[Gal(a1-4)Gal(b1-4)GlcNAc(b1-2)Man(a1-6)]Man(b1-4)GlcNAc(b1-4)GlcNAc
# Procedure, shortened: as §1
# [33] = biological target: Gal(a1-4)Gal(b1-4)GlcNAc(b1-3)Gal(b1-4)Glc
# Procedure, shortened: as §1
# Gal(a1-4)GlcNAc = biological target: Gal(a1-4)GlcNAc
# Procedure, shortened: as §1
binder,measurement,setting,value
B1,glycan array binding signal (z-score),[1],-0.348
same,glycan array binding signal (z-score),Fuc(a1-3)GlcNAc,-0.242
same,glycan array binding signal (z-score),[2],-0.205
same,glycan array binding signal (z-score),[3],-0.29
same,glycan array binding signal (z-score),[4],-0.264
same,glycan array binding signal (z-score),[5],-0.08
same,glycan array binding signal (z-score),[6],0.654
same,glycan array binding signal (z-score),[7],-0.3
same,glycan array binding signal (z-score),[8],-0.103
same,glycan array binding signal (z-score),[9],-0.199
same,glycan array binding signal (z-score),[10],-0.313
same,glycan array binding signal (z-score),[11],-0.15
same,glycan array binding signal (z-score),[12],-0.299
same,glycan array binding signal (z-score),[13],0.017
same,glycan array binding signal (z-score),[14],-0.176
same,glycan array binding signal (z-score),[15],-0.253
same,glycan array binding signal (z-score),[16],-0.117
same,glycan array binding signal (z-score),[17],-0.105
same,glycan array binding signal (z-score),[18],-0.222
same,glycan array binding signal (z-score),Fuc(a1-4)GlcNAc,0.088
same,glycan array binding signal (z-score),Fuc(b1-3)GlcNAc,-0.206
same,glycan array binding signal (z-score),Gal(a1-2)Gal,-0.317
same,glycan array binding signal (z-score),Gal(a1-3)Gal,-0.255
same,glycan array binding signal (z-score),Gal(a1-3)Gal(b1-3)GlcNAc,-0.249
same,glycan array binding signal (z-score),[19],-0.28
same,glycan array binding signal (z-score),[20],-0.026
same,glycan array binding signal (z-score),[21],-0.311
same,glycan array binding signal (z-score),[22],-0.31
same,glycan array binding signal (z-score),[23],-0.184
same,glycan array binding signal (z-score),Gal(a1-3)Gal(b1-4)Glc,-0.238
same,glycan array binding signal (z-score),Gal(a1-3)Gal(b1-4)GlcNAc,-0.241
same,glycan array binding signal (z-score),[24],-0.264
same,glycan array binding signal (z-score),[25],0.092
same,glycan array binding signal (z-score),[26],-0.239
same,glycan array binding signal (z-score),[27],-0.32
same,glycan array binding signal (z-score),[28],-0.33
same,glycan array binding signal (z-score),[29],-0.061
same,glycan array binding signal (z-score),Gal(a1-3)GalNAc,-0.183
same,glycan array binding signal (z-score),[30],-0.27
same,glycan array binding signal (z-score),[31],-0.05
same,glycan array binding signal (z-score),Gal(a1-4)Gal(b1-4)Glc,-0.029
same,glycan array binding signal (z-score),Gal(a1-4)Gal(b1-4)GlcNAc,-0.178
same,glycan array binding signal (z-score),[32],0.011
same,glycan array binding signal (z-score),[33],-0.211
same,glycan array binding signal (z-score),Gal(a1-4)GlcNAc,-0.254
